Molecules are shown by their SMILES. The campaign covered roughly 110,000 compounds. About 230 (0.21%) showed an effect of 50% or more. The list shows a part of the results.
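Also: 30 min substrate incubation versus DMSO and 10 µM JCP410 controls.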

Chain of DPAP1 (Q8IIJ9 whole entry, looked up): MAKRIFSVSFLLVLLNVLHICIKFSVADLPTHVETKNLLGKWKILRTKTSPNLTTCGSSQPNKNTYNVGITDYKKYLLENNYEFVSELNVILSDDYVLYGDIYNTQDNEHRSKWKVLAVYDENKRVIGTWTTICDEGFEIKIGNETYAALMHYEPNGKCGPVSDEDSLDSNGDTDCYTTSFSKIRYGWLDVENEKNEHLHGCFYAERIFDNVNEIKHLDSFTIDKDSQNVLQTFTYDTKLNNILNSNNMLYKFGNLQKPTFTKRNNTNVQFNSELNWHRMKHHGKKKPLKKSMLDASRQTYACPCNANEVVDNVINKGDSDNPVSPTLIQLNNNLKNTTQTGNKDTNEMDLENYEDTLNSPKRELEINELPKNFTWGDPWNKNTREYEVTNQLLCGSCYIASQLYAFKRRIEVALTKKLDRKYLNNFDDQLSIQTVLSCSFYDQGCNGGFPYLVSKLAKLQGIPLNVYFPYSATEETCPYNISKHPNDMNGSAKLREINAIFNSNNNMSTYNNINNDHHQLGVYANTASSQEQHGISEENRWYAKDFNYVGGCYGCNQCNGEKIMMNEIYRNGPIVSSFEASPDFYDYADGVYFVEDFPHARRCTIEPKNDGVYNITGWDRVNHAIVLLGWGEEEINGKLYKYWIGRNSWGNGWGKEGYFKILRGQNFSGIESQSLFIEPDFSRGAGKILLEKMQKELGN

The test has as its target DPAP1 (Plasmodium falciparum, UniProt Q8IIJ9). Nature of the test: primary screen, percent inhibition; read by cleavage of a fluorogenic dipeptide substrate; higher = more effect of the substance. On the set-up: species or system P. falciparum D10 trophozoite lysates; single well.
For the compound `CC(=O)Nc1ccc(NC2OCC(O)C(O)C2O)cc1` (stereo not shown), the “% Inhibition @ 10 uM” value worked out at 1.42%.
The value for `Cc1oc2ccc(O)cc2c1C(=O)c1ccc(Br)cc1` was 17.2%; that for `COc1ccc(-c2cc(C(=O)NCCN3CCOCC3)c3ccccc3n2)c(OC)c1` was 1.27%.
As to `COc1ccc(-c2noc(CSc3nnc(C)n3-c3ccccc3)n2)cc1`, the “% Inhibition @ 10 uM” value is given as -0.45%.
As to `C/N=C1\S/C(=C\c2cccn2-c2ccccc2)C(=O)N1C`, the “% Inhibition @ 10 uM” value is recorded as -2.19%.
In the case of `O=C(COc1ccccc1Cl)Nc1ccccc1NC(=O)COc1ccccc1Cl`, the “% Inhibition @ 10 uM” value was -4.82%.
Consider `Cc1sc(-c2nc3ccccc3nc2O)cc1-c1ccccc1`, for which the “% Inhibition @ 10 uM” value is -0.828%.
The figure for `CC(C)CNC(=O)c1cc(-c2ccc(O)cc2)on1` is -1.28%.
In the case of `CCCNc1ncnc2sc3c(c12)CCC(C)C3` (stereo not shown), the “% Inhibition @ 10 uM” value is given as -1.6%.
As for `CCN(CCN(C)C)Cc1c(Cl)cccc1Cl`, the “% Inhibition @ 10 uM” value is on record as -0.292%.
With `COc1ccc(-c2[nH]nc3nc(-c4ccccc4Cl)cc(C(=O)O)c23)cc1`, the “% Inhibition @ 10 uM” value is listed as -4.8%.
The value for `Nc1ncc(Br)cc1S(=O)(=O)NCCC(=O)NCCCc1ccccc1` was -6.65%.
The value for `C[C@@H](Cc1ccccc1)NC(=O)N[C@@H](C)Cc1ccccc1` was -9.13%; that for `C=CCn1c(SCC(=O)NCCO)nc2ccccc2c1=O` was -7.34%; that for `O=C(O)C1CC=CCC1C(=O)N1CCN(C/C=C/c2ccccc2)CC1` (stereo not shown) was -3.71%.
On to `O=C(Nc1cccc(-c2nc3ccccc3s2)c1)C(c1ccccc1)c1ccccc1`, for which the “% Inhibition @ 10 uM” value is listed as -2.47%.
The figure for `CCSc1ncc(Cl)c(C(=O)Nc2nc3ccc(C)cc3s2)n1` is 2.19%.
For `Cc1cc(C)c2c(=O)n(CC(=O)N3CCN(C4CCCCC4)CC3)sc2n1`, the “% Inhibition @ 10 uM” value is 15.6%.
As for `COc1ccc(C2CC(=O)N(C)C3=C2C(=O)CC(C)(C)C3)cc1` (stereo not shown), the “% Inhibition @ 10 uM” value was -4.06%.
The value for `CCN(CC)CCOc1nnc(-c2ccc(OC)cc2)c2ccccc12` was 21.6%; that for `Cc1ccc(C2=NN=C(NC(=O)CSc3nncn3C)SC2)cc1` was 6.82%.
Turning to `CCOC(=O)N1CCN(C(=O)c2cc(-c3ccccc3)[nH]n2)CC1`, the “% Inhibition @ 10 uM” value is on record as -2.13%.
The value for `O=C(Nc1cc([N+](=O)[O-])ccc1Cl)c1ccc(Cl)cc1` was -4.4%; that for `COC(=O)C1=C(O)/C(=C\c2cc(C)n(-c3ccc(C)c(C)c3)c2C)N=C1C` was 3.43%; that for `Cc1nn(CC(=O)NC2CC2)c(=O)c2nn(-c3ccccc3)c(C)c12` was -2.15%.
Regarding `COc1ccc(-c2noc(CC(=O)NC(C)CCc3ccccc3)n2)cc1` (stereo not shown), the “% Inhibition @ 10 uM” value amounted to 1.1%.
The value for `COC(=O)c1[nH]c2c(c1C)C(=O)CC(c1ccc(Cl)cc1)C2` (stereo not shown) was -1.18%.
In the case of `O=C(Nc1nonc1-c1ccccc1)c1ccccc1F`, the “% Inhibition @ 10 uM” value is 2.29%.
On to `Cn1c(=O)c2c(nc(Cl)n2Cc2ccccc2Br)n(C)c1=O`, for which the “% Inhibition @ 10 uM” value is on record as 4.86%.
On to `O=c1c2nccnc2nc(SCc2cc(=O)n3cc(Cl)ccc3n2)n1CCc1ccccc1`, for which the “% Inhibition @ 10 uM” value worked out at 9.61%.
With `C=C(C)Cn1c(NCCCN2CCOCC2)nc2c1c(=O)[nH]c(=O)n2C`, the “% Inhibition @ 10 uM” value came to 1.96%.
The figure for `CN1CCC(N(C)C2CC(=O)N(c3ccccc3)C2=O)CC1` (stereo not shown) is 4.33%.
`Cc1ccccc1C(O)c1cccnc1` (stereo not shown): the “% Inhibition @ 10 uM” value came to 2.01%.
The figure for `CN(C)C(=O)N1CCCC(C(=O)NC2CCCCC2)C1` (stereo not shown) is -1.34%.
The value for `Cn1c(=O)[nH]c(=O)c2c1nc(N1CCCCCC1)n2CCC#N` was 0.35%; that for `CCN1C(=O)N/C(=C/c2cn(CC(=O)O)c3ccccc23)C1=O` was -1.42%.
Regarding `O=c1cc(O)nc(SCc2ccccc2)n1-c1ccc(F)cc1`, the “% Inhibition @ 10 uM” value was -4.67%.
For the compound `CC1CN(Cc2cccs2)CC(C)O1` (stereo not shown), the “% Inhibition @ 10 uM” value was -3.27%.
As to `O=C(O)c1ccn(Cn2cnc3ccccc32)n1`, the “% Inhibition @ 10 uM” value turned out to be 4.94%.
The figure for `Cc1nn(CC(=O)NCc2cccnc2)c(=O)c2nn(-c3ccccc3)c(C)c12` is -4.38%; for `O=C(CC1NC2CCCCC2NC1=O)Nc1ccc(Oc2ccccc2)cc1` (stereo not shown) it is 2.64%; for `Cc1ccc(NC(=O)c2cc(C(=O)Nc3ccc(C)c(C)c3)n(C)n2)cc1C` it is -0.0648%.
For the compound `CCOC(=O)c1cc2c(=O)n3ccccc3nc2n(C)/c1=N\C(=O)c1cc(OC)c(OC)c(OC)c1`, the “% Inhibition @ 10 uM” value is listed as 0.457%.
The figure for `CC/N=C1/SC(CC(=O)Nc2ccc(C(F)(F)F)cc2)C(=O)N1CC` (stereo not shown) is -17%; for `COc1cccc(C(=O)C2=C(O)C(=O)N(c3ccccn3)C2c2cccc(Br)c2)c1` (stereo not shown) it is -1.26%; for `COc1ccc(CC(=O)Nc2sc3c(c2C(=O)Nc2ccccc2OC)CCC3)cc1` it is -8.92%.
With `Cc1nc(S)c(C#N)c(C)c1CC(=O)c1ccc(Br)cc1`, the “% Inhibition @ 10 uM” value was determined as 3.92%.
The value for `CC(C)Cn1cc(C(=O)NC(C)c2ccc3c(c2)OCCO3)c2c3ccccc3n(C)c2c1=O` (stereo not shown) was -0.591%.
Take `COc1ccc(N(CC(=O)NC2CCCC2)S(=O)(=O)c2ccc(C)cc2)c(OC)c1`: the “% Inhibition @ 10 uM” value was -3.49%.
Consider `CCOc1ccc(CCNc2nc3ccccc3n3c(CC)nnc23)cc1OCC`, for which the “% Inhibition @ 10 uM” value is -2.78%.
Regarding `O=C(Nc1ccc(S(=O)(=O)N2CCCCCC2)cc1)c1cccs1`, the “% Inhibition @ 10 uM” value stood at 2.38%.
The value for `COc1ccc(CC(=O)Nc2nc3c(s2)C(=O)CC(C)(C)C3)cc1OC` was -15.4%.
The figure for `COC(=O)c1c(C)oc2ccc(OCc3cc(C)ccc3C)cc12` is 6.22%.
The figure for `O=C(Cn1cnc2c(nc3n2CCCCC3)c1=O)NCCN1CCOCC1` is 5.27%; for `O=C(CCNC(=O)Cn1ccc2ccccc2c1=O)NCC1CCCC1c1ccccc1` (stereo not shown) it is -5.17%.
As to `COc1nc(-c2ccc(C)cc2)ccc1-c1noc(-c2cccnc2)n1`, the “% Inhibition @ 10 uM” value was -1.33%.
For `N#CC1=C(N)N(c2ccccc2)C2=C(C(=O)CCC2)C1c1cccs1` (stereo not shown), the “% Inhibition @ 10 uM” value is reported as 0.751%.
The value for `C=CCn1c(CNC(=O)CCC)nc2ccccc21` was 4.69%.
The figure for `O=S(=O)(NCC1OCCc2ccccc21)c1ccccc1` (stereo not shown) is -0.902%; for `N#Cc1c(NC(=O)CN2CCOCC2)sc2c1CCC2` it is -1.06%.
The figure for `O=C1CN(c2ccc(Cl)cc2)C(=O)N1` is -6.32%; for `COc1ccc(/C=C2\N=C(c3ccc(C(C)(C)C)cc3)OC2=O)c(OC)c1OC` it is -8.16%.
`C=CCOC(=O)C1=C(C)N=C(C)/C(=C(/O)OCC=C)C1c1ccc(O)c(OCC)c1` (stereo not shown): the “% Inhibition @ 10 uM” value was determined as 1.52%.
The figure for `NS(=O)(=O)c1ncn(Cc2ccccc2)n1` is 4.42%; for `C(#Cc1ccccc1)CN1CCN(CC#Cc2ccccc2)CC1` it is -3.42%; for `COc1ccccc1C(=O)Nc1c(C(=O)c2ccc(F)cc2)oc2ccccc12` it is 0.628%.
The figure for `O=c1/c(=C/c2ccccc2)sc2nc3ccccc3n12` is 1.55%; for `COc1ccc(C2NC(=O)c3c(sc4c3CCN(C)C4)N2)cc1Br` (stereo not shown) it is 2.02%; for `CCC(Sc1nc2nnc(C)c-2c(N)n1-c1cccc(C)c1)C(=O)N(CC)CC` (stereo not shown) it is -0.668%.
The value for `CCC/N=c1\c(NC(=O)c2c(-c3ccccc3Cl)noc2C)c(O)oc2ccccc12` was -4.27%; that for `CCOc1ccccc1NC1=C(Cl)C(=O)N(c2ccccc2C)C1=O` was 2.08%; that for `OCc1nc(CO)n(Cc2ccccc2)n1` was -1.45%.
On to `Cc1ccc(C(C#N)NC(=O)[C@H](CC(C)C)NC(=O)OCc2ccccc2)s1` (stereo partly shown), for which the “% Inhibition @ 10 uM” value is listed as 0.174%.
For the compound `CCC(C)n1c(=N)c(C(=O)NC(C)c2ccccc2)cc2c(=O)n3cc(C)ccc3nc21` (stereo not shown), the “% Inhibition @ 10 uM” value was 3.6%.
As for `CC(C)(C)S(=O)(=O)c1ccsc1`, the “% Inhibition @ 10 uM” value came out at 3.34%.
The figure for `COc1ccc(/C(C)=N/OCc2nc3c4cnn(-c5ccc(C)cc5)c4ncn3n2)cc1OC` is -2.14%.
The figure for `O=C1CC(c2coc3ccccc3c2=O)Sc2ccccc2N1` (stereo not shown) is -4.07%; for `CC1(C)CC2=Nc3ccccc3NC(c3ccccc3O)C2=C(O)C1` (stereo not shown) it is 0.634%; for `CCC1CCc2nc3sc(C(=O)Nc4cc(OC)c(OC)c(OC)c4)c(N)c3cc2C1` (stereo not shown) it is 4.85%.
The figure for `CCOCCCNC(=O)CCCn1nc(C)c2c(C)n(-c3ccccc3)nc2c1=O` is -2.87%; for `COc1ccc(CNC(=O)Cn2nc(C)c3c(C)n(-c4ccc(C)cc4)nc3c2=O)c(OC)c1` it is 1.28%; for `C=CCOc1ccc(/C=C2\C(=O)NC(C)=C2C(=O)OC)cc1OC` it is -0.597%.
Take `O=C(CCC(=O)N1Cc2ccccc2Oc2ncccc21)NCCc1cccs1`: the “% Inhibition @ 10 uM” value stood at 0.627%.
`Cc1ccc(C2=CC(c3cccc(F)c3)NC(S)=N2)o1` (stereo not shown): the “% Inhibition @ 10 uM” value is recorded as 0.0719%.
As for `CCCCc1ccc(-c2csc(N)c2C#N)cc1`, the “% Inhibition @ 10 uM” value amounted to 5.87%.
With `COc1ccc(C(=O)Nc2ccccc2C(=O)NC2CCCCC2)cc1S(=O)(=O)N1CCCC1`, the “% Inhibition @ 10 uM” value is recorded as -2.63%.
Take `c1csc(COc2ccccc2CNC2CCCCC2)c1`: the “% Inhibition @ 10 uM” value is 1.63%.
In the case of `CCOc1cccc(CN2CCc3ccccc3C2)c1O`, the “% Inhibition @ 10 uM” value is -4.75%.
Regarding `CN(Cc1ccccc1)C(=O)CCC(=O)N(C)Cc1ccccc1`, the “% Inhibition @ 10 uM” value is -8.75%.
In the case of `CCOc1ccc(CNC(=O)c2cc(O)nc3ccc(S(=O)(=O)N4CCCCC4C)cc23)cc1` (stereo not shown), the “% Inhibition @ 10 uM” value worked out at 0.387%.
With `Cc1c(CC(=O)N2CCOCC2)c(=O)oc2c(C)c3occ(C(C)(C)C)c3cc12`, the “% Inhibition @ 10 uM” value amounted to 3.94%.
The figure for `O=C(Cn1cnc2c(nnn2Cc2ccccc2F)c1=O)NCc1ccco1` is 1.24%.
The figure for `O=S(=O)(NCCC1=CCCCC1)c1ccc(-c2cc(C(F)(F)F)no2)s1` is 0.185%.
The figure for `COc1ccc(C2SCCN2S(=O)(=O)c2ccc3ccccc3c2)cc1OC` (stereo not shown) is 6.07%.
Turning to `COc1cccc(C2Oc3ccccc3C3=C2C(c2ccc(C)cc2)n2ncnc2N3)c1` (stereo not shown), the “% Inhibition @ 10 uM” value was 1.53%.
Turning to `C/C(Cn1nnc2ccccc21)=N/OC(=O)c1c(F)cccc1F`, the “% Inhibition @ 10 uM” value came to 4.01%.
The value for `COc1ccc(NC(=O)CCC(=O)Nc2cccc(C)c2)cc1` was -6.75%; that for `Cc1ccc(C)c(CN2CCC(C(N)=O)CC2)c1` was -4.04%; that for `CCCCCCn1cnc2c1c(=O)[nH]c(=O)n2C` was -1.47%.
On to `COc1cc([N+](=O)[O-])ccc1N1CCCC1`, for which the “% Inhibition @ 10 uM” value is reported as 1.13%.

The values are drawn from paper PMC6919601, “Identification of Plasmodium dipeptidyl aminopeptidase allosteric inhibitors by high throughput screening” (PLoS ONE, 2019).
